The supplement of paper PMC10338343
± gives the standard deviation. Over roughly 5,500 sequences, “pre-steady-state target cleavage rate” has its median near 0.1; the highest 2% begin near 0.64. The entries are a selection whose mix differs from that of the whole data set.

tested on: MIWI (PIWIL1) piRISC loaded with piRNA #2 (30 nt); experiment: pre-steady-state target cleavage rate (min^-1); MIWI and MILI are mouse PIWI proteins and EfPiwi is from a freshwater sponge; tags in brackets are library labels; higher = faster piRNA-guided slicing of the target; conditions: guide: piRNA #2 5'p-UUAGGUAACCCAGUAGAUCCAGAGGAAUUC; auxiliary factor: 500 nM mouse GTSF1
Summary of the method: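 Cleave-'n-Seq: a transcribed, DNA-blocked target RNA library (0.1 nM) was mixed with 1 nM active affinity-purified piRISC carrying one synthetic guide, with or without 500 nM GTSF1 partner protein, in HEPES–potassium acetate buffer at 33 °C for 0–8 or 0–960 min. Uncleaved targets were sequenced and normalised to depth and to weakly complementary targets. Three trials were pooled, and k3 was capped at 0.0001 min^-1. The pre-steady-state cleavage rate came from a burst-and-steady-state fit.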

Sequence | pre-steady-state target cleavage rate
CUUAAGGAGAGGAUCUACUGGUUUACCUAA | 0.0137 ± 0.004
CUUAUCCUCUGGAUCUACUGGGUUACCAAA | 0.489 ± 0.07
CUUUUCCUCUGGAUCUACUCGGUUACCUUA | 0.062 ± 0.017
CUUAAGCUCUGGAUUCUACUGGGUUACCUAA | 0.0752 ± 0.0094
CUAAUCCUCUGGAUCUACUCGGUUACCUAA | 0.0905 ± 0.013
CUUUUCCUCUGGAUCUACUGGCUAACCUAA | 0.0159 ± 0.0054
CAAUUCCUCUGGAUCAUACUGGGUUACCUAA | 0.0132 ± 0.0056
CUUAAGGACUGGUUCUACUGCGUUACCUAA | 0.0359 ± 0.033
CUUUUCCCUCUGGAUCUACUGGGUUACCUAA | 0.312 ± 0.042
CUAUUCCUCUGGAUCUACUGGGUUAUCUAA | 0.613 ± 0.075
CUUAUCCUCUGGAUCUUCUGGGUUACCUAA | 0.375 ± 0.053
GAAUUCCUCUGGAUCUACUCGGUUUCCUAA | 0.0428 ± 0.014
CUUUUCCAGAGGAUCUACUGGGUUACCUAA | 0.0983 ± 0.019
CUUAAGGAGAGGUUCUACUGGGUUACGUAA | 0.00763 ± 0.0034
CAAUUCGUCUGGAUCUACUGGGUUACCUUA | 0.378 ± 0.072
CUUAAGGACUGGAUCUACUGGGUAUCCUAA | 0.0256 ± 0.019
CUUAAGGAGUGGAUCUACUGGGUUACGUAA | 0.298 ± 0.044
GAAUUCCUCUGGAUCCUACUGGGUUACCUAA | 0.2 ± 0.046
CUAAUCGUCUGGAUCUACUGGGUUACCUAA | 0.413 ± 0.055
GAAUUCCUCUGGAUCUACUCGGUUACCUAA | 0.107 ± 0.02
CUUAAGGAGACGAUCUACUGGGUUACCCAA | 0.00413 ± 0.0025
CAAUUCCUCUGGAUCUACUGGGUAACGUAA | 0.241 ± 0.061
GAAUUCCUCUGGAUCUACUGGGUAAGCUAA | 0.224 ± 0.037

Sequence | pre-steady-state target cleavage rate
CUUUUGCUCUCGAUCUACUGGGUUACCUAA | 0.382 ± 0.027
CUUAAGCACUGGAUCUACUCGGUUACCUAA | 0.0367 ± 0.012
CUUAUCGUCUGGAUCUACUGGGUUAGCUAA | 0.193 ± 0.054
CUUUUCCUCUCGAUCUACUGCGUUACCUAA | 0.845 ± 0.072
CUUAAGGUCUGGAUCUACUGGGUUACCGAA | 0.1 ± 0.018
CUUAUCCUCUGGUUCUACUGGGUUUCCUAA | 0.166 ± 0.064
CUAUUCCUCGUGGAUCUACUGGGUUACCUAA | 0.216 ± 0.037
CUUAACCUCUGGAACUUCUGGGUUACCUAA | 0.248 ± 0.019
CAAUUCCUGUGGAUCUACUGGGUUACCUUA | 0.47 ± 0.07
CUUAAGGACUGGAGCUACUGGGUUACCUAA | 0.117 ± 0.052
CUUAAGCUCUGGAUCUACAGGGUUACCUUA | 0.0779 ± 0.0086
CAAUUCCUCUGGAUCUACCGGGUUACCUAA | 0.167 ± 0.02
GAAUUCCUGUGGAUCUACUCGGUUACCUAA | 0.133 ± 0.021
CUAAUCCUCUGGAUGUACUGGGUUACCUAA | 0.551 ± 0.052
CUUAAGGAGACCAUCUUCUGCGUUACCUAA | 0.00306 ± 0.0029
CUUAUCCUCAGGAUCUACUGGGUUACCUAA | 0.602 ± 0.065
CUUAAGGUCUGGAUCUACUGGGUUACCAA | 0.159 ± 0.029
GAAUUGGACUGGAUCUACUGGGUUACCUAA | 0.19 ± 0.078
CUUAAGGACUGGAUCUACUGGGCUACCUAA | 0.0533 ± 0.029
CUUAUCCUCUGGAUCAACUGGGUUACCUUA | 0.318 ± 0.043
CUUUUCCUCCUGGAUCUACUGGGUUACCUAA | 0.53 ± 0.058
CUUAAGCUGACGAUCUACUGGGUUACCUAA | 0.0245 ± 0.0043
CUUAAGGUCUGGAUCUACUGGGUAACCAAA | 0.0111 ± 0.0067

Sequence | pre-steady-state target cleavage rate
CUUAUCCUCUGGAAGAACUGGGUUACCUAA | 0.0642 ± 0.023
GAAUUCCUCAGGAUCUACUGGGUUUCCUAA | 0.438 ± 0.082
CUUAAGCUCUGGAUCUACUGGGAUAGCUAA | 0.0795 ± 0.015
CUUAAGGAGACCAUCUACUGGGUAUACCUAA | 0.00537 ± 0.0038
CUAUUCCUCUGGAUCUACAGGGUUUCCUAA | 0.114 ± 0.018
CUUAAGGAGUGCAUCUACUGGGUUACGUAA | 0.0109 ± 0.003
CUUAAGGACUGGAUCUAGUGCGUUACCUAA | 0.013 ± 0.0093
CUAUUCGUCUGGAUCUACUGGGUUUCCUAA | 0.472 ± 0.057
CUAUUCCUCUGGUAUCUACUGGGUUACCUAA | 0.343 ± 0.049
CUUAACCUCUGGAUCUACUGGGUUACCUAU [g2:g25:cont:t1U] | 0.185 ± 0.022
CUUAAGGAGUGGAUCUACUGGAUUACCUAA | 0.0894 ± 0.025
CUUAAGCUCUGGAUCUACUGGGUUUCCUUA | 0.0482 ± 0.013
CUUAAGGUCUGGAUCUACUGGGUAACCUAA | 0.103 ± 0.027
CUUAACCUCUCGAUCUUCUGGGUUACCUAA | 0.47 ± 0.044
CUUAUCCUCUGGAUCUUCUGGCUUACCUAA | 0.0237 ± 0.0092
CUUAAGGUCUGGAUCUACUGGGUUACCUCAA | 0.279 ± 0.039
CUUAAGGAGUGGAUCUACUGGGUUACGUUA | 0.0506 ± 0.013
CUUAAGCUUUGGAUCUACUGGGUUACCUAA | 0.213 ± 0.022
CUUAACCUCUGGUUCUACUGGGUUAGCUAA | 0.201 ± 0.067
CUUAACCUCUGGAUCUACUGGGAUAGCUAA | 0.0953 ± 0.016
CUAUUCCUCUGGAUCUACUGGGUUACCUGA | 0.41 ± 0.14
CUUAAGGUCUGGUACUACUGGGUUACCUAA | 0.12 ± 0.025
CUUAAGCUGUGCAUCUACUGGGUUACCUAA | 0.135 ± 0.015

Sequence | pre-steady-state target cleavage rate
GAAUUCACUCUGGAUCUACUGGGUUACCUAA | 0.166 ± 0.04
CUUAAGGACUCGGAUCUACUGGGUUACCUAA | 0.0726 ± 0.02
GAAUUCUCUGGAUCUACUGGGUUACCUAA | 0.253 ± 0.049
CUUAUCUCUCUGGAUCUACUGGGUUACCUAA | 0.18 ± 0.028
CUUAAGGUCUGGAUCUACUGGGAAUCCUAA | 0.0099 ± 0.0043
CUAUUCCUGUGGAUCUACUGGGUUACCUAA | 0.5 ± 0.052
CUUAUCCUCUGGAUCUACAGGGUUACCUAA | 0.254 ± 0.025
CUUAUCCUCUGGAACUACUGGCUUACCUAA | 0.109 ± 0.01
CUUAAGCUCUGGAUCUACUGGGUUACCUUAA | 0.0919 ± 0.017
CUUAUCCUCUCGAUCUACUGGGUUACGUAA | 0.728 ± 0.046
GAAUUCCUCUGGAUCUACUGGGUUGCCUAA | 0.323 ± 0.053
GAAUUCCUCUGGAUCUACUGGGAUACGUAA | 0.235 ± 0.037
CUUAAGGAGACCUACUAGUGCGUUACCUAA | 0.00858 ± 0.0025
CAAUUCCUCUGCAUCUACUGGGUUAGCUAA | 0.365 ± 0.035
CUUAACCUCUGGAUCUACUGGGUUACUCUAA | 0.134 ± 0.015
CUUAAGGUCUGGAUCUACUGGGUUAGCAAA | 0.0302 ± 0.012
CUUAAGGUCUGGAUCUACUGGGUUACGCUAA | 0.401 ± 0.045
CUUAACCUCUGGAUCUACAGGGAUACCUAA | 0.111 ± 0.013
CAAUUCCUCUGGAUCAACUGGGUUACGUAA | 0.455 ± 0.057
CUAUUGCUCUGGAUCUACUGCGUUACCUAA | 0.314 ± 0.047
CAAAUCCUCUGGAUCUACUGGCUUACCUAA | 0.109 ± 0.02
CUACUCCUCUGGAUCUACUGGGUUACCUAA | 0.246 ± 0.039
CUUAACCAUCUGGAUCUACUGGGUUACCUAA | 0.317 ± 0.027
